About 5,700 (2.6%) of roughly 220,000 compounds were called active. The shares of active, inactive and inconclusive entries below differ from those in the screen. Calls follow the shape of the dose curve; as a rule, active = well fitted inhibition curve with a large enough effect; inconclusive = small, poorly fitted or top-dose-only effect; inactive = no such curve, though single readings can be large or run the other way. Where the call is inconclusive, the potency comes from a doubtful curve fit.
biological target: Lysine-specific demethylase 5B (Homo sapiens) (UniProt Q9UGL1); test: Primary screen for KDM5B Histone Demethylases FDH-coupled qHTS; settings: FDH-coupled NADH fluorescence (FDH is formaldehyde dehydrogenase); series mostly up to 57.7 µM; also: nearly all actives have a fitted effect of over 70% in size
Sequence of UniProt Q9UGL1 (Q9UGL1 whole entry, looked up): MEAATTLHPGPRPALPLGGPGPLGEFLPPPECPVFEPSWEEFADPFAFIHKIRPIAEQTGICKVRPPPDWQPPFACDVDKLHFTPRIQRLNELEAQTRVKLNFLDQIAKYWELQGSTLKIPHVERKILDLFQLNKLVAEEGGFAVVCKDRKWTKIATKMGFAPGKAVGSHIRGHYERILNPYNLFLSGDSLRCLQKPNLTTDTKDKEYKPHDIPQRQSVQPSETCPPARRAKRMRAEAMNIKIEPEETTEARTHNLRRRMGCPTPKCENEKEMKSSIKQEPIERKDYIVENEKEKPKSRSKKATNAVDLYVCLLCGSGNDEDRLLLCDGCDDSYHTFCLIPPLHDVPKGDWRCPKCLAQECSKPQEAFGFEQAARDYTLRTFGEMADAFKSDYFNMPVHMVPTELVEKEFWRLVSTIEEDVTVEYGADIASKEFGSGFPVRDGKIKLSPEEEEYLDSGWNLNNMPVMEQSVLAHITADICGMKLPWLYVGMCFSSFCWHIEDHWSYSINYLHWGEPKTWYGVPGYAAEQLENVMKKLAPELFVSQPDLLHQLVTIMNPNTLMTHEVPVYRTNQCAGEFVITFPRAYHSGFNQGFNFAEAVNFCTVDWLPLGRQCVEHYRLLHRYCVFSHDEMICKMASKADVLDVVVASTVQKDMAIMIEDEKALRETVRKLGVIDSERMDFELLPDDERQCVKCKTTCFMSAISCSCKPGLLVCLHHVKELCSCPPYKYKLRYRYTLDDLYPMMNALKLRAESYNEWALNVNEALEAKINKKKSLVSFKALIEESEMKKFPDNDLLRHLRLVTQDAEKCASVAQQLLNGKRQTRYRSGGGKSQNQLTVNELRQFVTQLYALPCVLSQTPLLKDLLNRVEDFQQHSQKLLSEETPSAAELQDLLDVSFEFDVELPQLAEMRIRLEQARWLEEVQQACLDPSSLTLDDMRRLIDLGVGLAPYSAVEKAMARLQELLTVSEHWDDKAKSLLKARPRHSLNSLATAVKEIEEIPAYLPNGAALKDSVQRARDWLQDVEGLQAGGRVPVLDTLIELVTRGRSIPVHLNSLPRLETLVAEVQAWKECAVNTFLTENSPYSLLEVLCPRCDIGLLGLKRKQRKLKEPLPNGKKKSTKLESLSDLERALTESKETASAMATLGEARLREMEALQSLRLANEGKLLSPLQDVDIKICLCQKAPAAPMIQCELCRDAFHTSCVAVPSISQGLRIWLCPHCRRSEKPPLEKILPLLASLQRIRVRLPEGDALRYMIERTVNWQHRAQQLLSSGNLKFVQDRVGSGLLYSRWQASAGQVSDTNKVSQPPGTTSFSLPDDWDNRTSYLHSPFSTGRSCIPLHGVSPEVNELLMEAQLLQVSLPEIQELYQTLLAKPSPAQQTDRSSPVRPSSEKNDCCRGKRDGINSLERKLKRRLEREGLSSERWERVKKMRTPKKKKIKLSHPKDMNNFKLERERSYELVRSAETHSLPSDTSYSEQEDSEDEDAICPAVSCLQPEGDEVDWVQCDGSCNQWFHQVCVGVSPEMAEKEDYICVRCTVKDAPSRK
Method in brief: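 Compound dilutions met 200 nM (final) KDM5BΔAP for 10 min at room temperature before substrate addition. The substrate mix held 12.5 µM H3K4me3 with cofactors 25 µM α-ketoglutarate and 50 µM Fe²⁺. NADH signal gain over 30 min defined activity.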
Potency is read from the fitted curve at half-maximal effect; tags tell the direction and shape of the fitted curve.

Compound | Potency
O=C(Nc1cccnc1-n1cccn1)c1cccc(NC(=O)c2cccs2)c1 | inconclusive: 35.5 µM [inhibitor, partial curve, poor fit]
Cc1ccccc1[C@@H]1CN(C(=O)CN(C)C2CCN(C)CC2)C[C@H]1C(=O)O | inconclusive: 5.01 µM [inhibitor, partial curve]
Cc1c(-c2ccccc2F)[nH]c2ccc(CNC(=O)C3CCCN(C(N)=O)C3)cc12 (configuration not stated) | active: 28.2 µM
O=[N+]([O-])c1cc(C(F)(F)F)cc([N+](=O)[O-])c1NCCNC(=S)Nc1ccc(Cl)c(Cl)c1 | inactive
CC(=O)c1cccc(NC(c2ccc(F)cc2)c2nnc(-c3ccccc3)o2)c1 (configuration not stated) | inconclusive: 35.5 µM [inhibitor, single point]
CCSc1nnc2c(n1)OC(CC)N(C(C)=O)c1ccccc1-2 (configuration not stated) | inconclusive: 1.41 µM [inhibitor, full curve, poor fit]
O=C(NCc1nnc2ccc(-c3ccccc3)nn12)c1cc(F)ccc1Cl | active: 17.8 µM
O=C(c1ccn2cncc2c1)N1CCOCC1 | inactive
Cc1nn(C)c2c1c(-c1ccccc1)cc(=O)n2C(C)C(=O)NCc1ccc(F)cc1 (configuration not stated) | inconclusive: 28.2 µM [inhibitor, partial curve, poor fit]
CCN1CCN(C(c2cccc(F)c2)c2c(O)cc(C)n(Cc3ccco3)c2=O)CC1 (configuration not stated) | inconclusive: 31.6 µM [inhibitor, partial curve, poor fit]
Fc1ccc(C(=Nc2ccccc2)c2ccc(F)cc2)cc1 | inactive
O=c1c(N2CCN(c3cccc(C(F)(F)F)c3)CC2)csc2ccc(Cl)cc12 | inconclusive: 22.4 µM [inhibitor, partial curve, poor fit]
COC(=O)c1[nH]c2cc(C)ccc2c1NC(=O)CN1CCOCC1 | inconclusive: 39.8 µM [inhibitor, single point]
CCOc1ccc(OCCOCCOc2ccccc2)cc1 | inactive
Cc1oc(-c2ccccc2)nc1CN1C(=O)CSc2ccc(S(=O)(=O)N3CCCCCC3)cc21 | inactive
COc1ccc(Cl)cc1-c1cc2c(cn1)CN(Cc1cccnc1)CCN2 | active: 31.6 µM
COc1cc(OC)cc(N2CCN(S(=O)(=O)c3ccc(-n4cnnn4)cc3)CC2)c1 | inactive
O[C@]1(c2ccccc2)CCN(Cc2ccco2)C[C@H]1N1CCCC1 | inconclusive: 3.55 µM [inhibitor, full curve]
CCOC(=O)c1c[nH]n2c(=O)cc(C)nc12 | inconclusive: 20 µM [inhibitor, partial curve, poor fit]
COc1ccc(-c2cn3nc(N4CCCC(C(=O)NCc5ccccc5Cl)C4)sc3n2)cc1 (configuration not stated) | inactive
Cn1nc(-c2cccs2)cc1-c1nc(C2CCOC2)no1 (configuration not stated) | inconclusive: 39.8 µM [inhibitor, partial curve, poor fit]

Compound | Potency
CCOC(=O)c1cc2cc(Oc3ccccc3)ccc2[nH]1 | inconclusive: 25.1 µM [inhibitor, partial curve, poor fit]
Cc1ccc(-c2cc(N3CCCN(C(=O)Cc4ccc(F)cc4)CC3)n[nH]2)cc1C | inconclusive: 15.8 µM [inhibitor, partial curve]
CCOc1ccc(CC(=O)Nc2cccc3cccnc23)cc1 | inactive
Cc1ccc2c(c1)N(CCCC(=O)N1CCc3c(nc4cc(-c5ccccc5)[nH]n4c3=O)C1)C(=O)CO2 | inconclusive: 25.1 µM [inhibitor, partial curve, poor fit]
CN1c2cc(C(=O)Nc3ccc(Cl)cc3)ccc2C(=O)N2CCCCC21 (configuration not stated) | inconclusive: 31.6 µM [inhibitor, partial curve, poor fit]
Cc1c(CC(=O)Nc2ccc(CCO)cc2)c(=O)oc2cc(O)ccc12 | inconclusive: 20 µM [inhibitor, partial curve, poor fit]
CC(C)Cn1cc(NC(=O)N2CCN(c3ccccc3F)CC2)c2ccccc2c1=O | inconclusive: 25.1 µM [inhibitor, partial curve, poor fit]
COc1cc2c(cc1NC(C)=O)C(c1ccc(Oc3ccccc3)nc1)CC(=O)N2 (configuration not stated) | inactive
Cc1cccc(C)c1Nc1c(-c2ccsc2)nc2ccc(Cl)cn12 | inconclusive: 2.51 µM [inhibitor, partial curve, poor fit]
Cc1nnnn1CCC(=O)N1CCCC(c2nnc(Cn3ccnc3)n2C)C1 (configuration not stated) | inconclusive: 7.08 µM [inhibitor, single point]
O=C(CCC[C@H]1NC[C@@H]2CC1CN(Cc1ccccc1)C2)N1CCCCC1 | inactive
COc1ccc(Cl)cc1-c1ccc2c(c1)C(=O)N1CCN(C(=O)C3CC3)C[C@@H]1C(=O)N2 | inconclusive: 28.2 µM [inhibitor, partial curve, poor fit]
Cc1cc(C)nc(NS(=O)(=O)c2ccc(NC(=O)COc3ccc(C(C)(C)C)cc3)cc2)n1 | inconclusive: 31.6 µM [inhibitor, single point]
O[C@@H]1CO[C@H]2[C@@H]1OC[C@@H]2n1nnnc1-c1ccc(-c2ccccc2)cc1 | inconclusive: 31.6 µM [inhibitor, single point]
O=C(NC1CCCC1)c1cccc(I)c1 | inactive
CCc1nc(C)sc1-c1nc2c([nH]1)CC(C)(C)CNC2=O | inconclusive: 35.5 µM [inhibitor, single point]
CC1(COc2cccnc2)COc2ccc(C(=O)NCc3cccs3)cc2N1 (configuration not stated) | active: 35.5 µM
CCCn1ccc2c(OCC(=O)NCc3ccccc3Cl)cccc2c1=O | inconclusive: 35.5 µM [inhibitor, single point]
Cc1ccc(C)n1-c1c(C(=O)NCCN2CCCCC2)sc2ncccc12 | inconclusive: 28.2 µM [inhibitor, single point]
O=C(Nc1ccccc1C(=O)OCc1cc(=O)n2c3c(sc2n1)CCCC3)c1cccc(Cl)c1 | inconclusive: 31.6 µM [inhibitor, partial curve, poor fit]
CN(Cc1cccc(F)c1)c1ccc(S(N)(=O)=O)cn1 | inactive

From PubChem BioAssay AID1347165 (National Center for Advancing Translational Sciences (NCATS), 2019)
